Assay results reported in PubChem BioAssay AID652104 (National Center for Advancing Translational Sciences (NCATS), 2013).
In all, about 410,000 compounds went through this assay and about 7,200 (1.8%) were called active. This list was built around the results that the source calls inconclusive (neither active nor inactive); the mix of calls is not that of the screen. The call rests on the fitted dose curve; in most records, active means well fitted activation curve with a large enough effect; inconclusive means small, poorly fitted or top-dose-only effect, or another doubt; inactive means no such curve, though single readings can be large or run the other way. Potencies of inconclusive entries are doubtful fits and often do not repeat.

test: qHTS of TDP-43 Inhibitors; settings: TDP-43 expressing yeast growth rescue, BacTiter-Glo, 24 h; growth rescue (activation): at 46.1 µM (top of the series) unless noted; further: nearly all actives have a fitted effect of over 50% in size; on growth rescue (activation): % of control where 0% means no effect
Method in brief: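 Luminescence from BacTiter-Glo reports growth of TDP-43-expressing yeast after 24 hr at 30 deg C with compound. Cells were raffinose-pregrown to mid-log, then seeded in galactose medium at OD600=0.02.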
Potency means the concentration at half of the fitted maximal effect; tags describe the fitted curve by direction and shape.

Potency, active:
COc1ccc(-c2csc(C)n2)cc1Br 11.2 µM
Cc1cc(C)cc(OCCn2nnc3ccccc32)c1 22.4 µM
COc1ccc(-c2nc3scc(CCNS(=O)(=O)c4cccs4)n3n2)cc1 25.1 µM
CC(=O)Nc1cc(-c2ccccc2N(C)C)cn2c(-c3cccc(C(F)(F)F)c3)cnc12 25.1 µM
COc1ccccc1C(=O)O/N=C(/c1ccncc1)c1ccc([N+](=O)[O-])cc1 28.2 µM

Potency, inactive:
COCCCNC(=O)CN1C(=O)c2c(c3ccccc3n2C)C1c1ccc(OC)cc1 (configuration not stated)
CC1(C)Cc2c(cnn2-c2ccccc2)C(=O)/C1=N\NC(=O)c1ccncc1
CC(C)(CO)NC(=O)C12CC3CC(CC(Br)(C3)C1)C2
O=C(CSc1nc2ccccc2n1Cc1ccc(F)c(Cl)c1)N1CCN(c2ccc(F)cc2)CC1
CCc1ccccc1NC(=O)CC(c1ccc(F)cc1)N1Cc2ccccc2C1=O (configuration not stated)
CC(NC(=O)COc1ccccc1Cl)c1ccccc1 (configuration not stated)
O=c1c(Cl)c(N/N=C/c2ccc(Cl)cc2)cnn1-c1ccccc1
CCC(=O)N1CCc2cc(S(=O)(=O)NC(C(=O)NCc3ccc(OC)cc3)C(C)C)ccc21 (configuration not stated)
Cc1nc2cccnc2n1-c1cccc(C(=O)NCc2cccc(Cl)c2)c1
COc1cnc(-c2ccccn2)nc1Sc1ccc(F)cc1
Cc1c(/C=C/C(=O)c2ccccc2)cnn1C
CC(C)c1ccc(S(=O)(=O)NCc2nc3cccnc3n2Cc2ccc(F)cc2)cc1
CC1=C(C(=O)Nc2cc(C)cc(C)c2)C2(CCCCC2)OC1=O

Potency, inconclusive:
Cc1ccc(NC(=O)c2cc(-c3ccc4c(c3)OCO4)on2)cc1 20 µM [activator, single point]
O=C1C2ON(c3ccccc3)C(c3ccncc3)C2C(=O)N1c1ccc(Br)cc1 (configuration not stated) 20 µM [activator, partial curve]
CCS(=O)(=O)CCSc1nc2c(cc1C#N)CCCC2 35.5 µM [activator, single point]
O=C(CCl)Nc1ccccc1C(=O)Nc1ccc2c(c1)OCO2 1.41 µM [activator, full curve]
O=S(=O)(c1c(F)cccc1F)N1CCN(Cc2c(O)ccc3ccccc23)CC1 15.8 µM [activator, partial curve]
Cc1ccccc1OCC(=O)Nc1cccc(Cl)c1C 3.55 µM [activator, partial curve]
COc1cc(C(=O)NCc2ccc3c(c2)CCN3C(=O)c2ccncc2)cc(OC)c1OC 35.5 µM [activator, partial curve]
Cc1oc(-c2ccccc2)nc1CSc1nc2c(c(=O)[nH]1)CCC2 3.55 µM [activator, partial curve]
CCSc1nc(C2CC2)cc(-c2ccco2)c1C#N 0.251 µM [activator, full curve, poor fit]
COc1ccc(CN2C(=O)c3ccccc3C2c2nnnn2Cc2ccccc2)cc1 (configuration not stated) 35.5 µM [activator, single point]
O=c1ccc2cc(S(=O)(=O)N3CCCC3)ccc2[nH]1 10 µM [activator, partial curve, poor fit]
O=C(c1cc(-c2ccccc2)nc2ccccc12)N1CCN(c2ccccc2O)CC1 12.6 µM [activator, single point]
CN1/C(=C\C(=O)CSc2cccc[n+]2[O-])C(C)(C)c2ccccc21 25.1 µM [activator, single point]
COc1ccccc1/C=C\C=N\n1c(-c2ccc(Cl)cc2Cl)n[nH]c1=S 17.8 µM [activator, partial curve]
COc1ccc(C(=O)C(CN2CCCC2)c2ccccc2)cc1 (configuration not stated) 31.6 µM [activator, single point]
Cc1ccc(S(=O)(=O)N2CCCSCC2)cc1 25.1 µM [activator, partial curve, poor fit]
CCOC(=O)c1cc(-c2ccccc2)sc1N 6.31 µM [activator, single point]
COc1ccc(-c2cnc(SCC(=O)Nc3ccc4c(c3)OCO4)n2Cc2ccco2)cc1 3.16 µM [activator, single point]
CCOC(=O)[C@H]1[C@H]2COc3ccc(Br)cc3[C@@H]2N2C(=O)CN(Cc3ccc(C)cc3)C(=O)[C@@]12C 20 µM [activator, partial curve]
CN(CC(=O)Nc1cccc(F)c1)C(=O)c1cn(-c2ccccc2)nc1-c1ccc(Cl)cc1 22.4 µM [activator, single point]
COc1ccc2oc(-c3ccccc3)c(C(=O)N3CCOCC3)c2c1 12.6 µM [activator, partial curve]
Cc1ccc2sc(N3CCN(C(=O)C4COc5ccccc5O4)CC3)nc2c1C (configuration not stated) 25.1 µM [activator, single point]
Cc1cc(C)c(NC(=O)c2sc3nc(C)cc(C)c3c2N)c(C)c1 3.98 µM [activator, full curve]
Cc1cccc(NC(=O)C(C)Oc2ccc(C)nc2[N+](=O)[O-])c1 (configuration not stated) 10 µM [activator, partial curve]
O=C(Nc1cccc2c1CCCC2)c1ccc(F)cc1 17.8 µM [activator, partial curve]
O=C(Nc1ccccc1)N1CCSc2ccccc21 35.5 µM [activator, single point]
CCOC(=O)c1cc2c(=O)n3ccccc3nc2n(Cc2ccco2)c1=NC(=O)c1cc(C)cc(C)c1 0.501 µM [activator, partial curve, poor fit]
CCOC(=O)Cc1csc(NC(=O)COC(=O)/C=C/c2ccc(OC)cc2)n1 35.5 µM [activator, partial curve, poor fit]
O=C(NCc1cccc2ccsc12)c1cccs1 25.1 µM [activator, single point]
CN(Cc1ccccc1)C(=O)NC1CCCCC1 31.6 µM [activator, single point]
N#CC1=C(N)Oc2[nH]c(=S)[nH]c(=O)c2C12C(=O)Nc1ccccc12 (configuration not stated) 11.2 µM [activator, single point]
CO/N=C/c1ccc(N2CCN(C(=O)c3cccc(C(F)(F)F)c3)CC2)c([N+](=O)[O-])c1 31.6 µM [activator, single point]
Cc1ccc(-n2c(=O)c3c4c(sc3n(CC(=O)C(C)(C)C)c2=O)CCCCC4)cc1C 5.01 µM [activator, single point]
COC(=O)c1ccc(-c2c(-c3ccccc3)ncc3cc(F)ccc23)cc1 35.5 µM [activator, partial curve]
COC(=O)c1cc(NC(=O)Cc2ccc(OC)c(OC)c2)cc(C(=O)OC)c1 0.562 µM [activator, full curve, poor fit]
COc1ccccc1N1CCN(C(=O)c2cc(-c3ccccc3)on2)CC1 25.1 µM [activator, single point]
CCOC(=O)c1c(-c2ccccc2)csc1NC(=O)CSc1nnnn1C 31.6 µM [activator, single point]
Nc1nc2c(F)c(F)c(F)cc2s1 12.6 µM [activator, partial curve]
CCOC(=O)C1=C(COc2ccccc2)NC(=O)NC1c1ccc2ccccc2c1 (configuration not stated) 35.5 µM [activator, partial curve]
CCCCN1C(=O)C(=O)N(c2ccccc2)C1=S 25.1 µM [activator, single point]
Brc1ccccc1-c1nnc(CSc2nnc3sc4ccccc4n23)o1 12.6 µM [activator, partial curve, poor fit]
COC(=O)c1ccc(NC(=O)c2c(-c3ccccc3)c(-c3ccccc3)nn(C)c2=O)cc1 0.316 µM [activator, full curve, poor fit]
COc1ccc2nc(-c3ccccc3)cc(OC)c2c1 2.51 µM [activator, full curve, poor fit]
Cc1cccc(Nc2c([N+](=O)[O-])c(=O)n(C)c3ccccc23)c1 22.4 µM [activator, partial curve]
CCOC(=O)N1C=CC(C)=C[C@@H]2[C@@H](N3C(=O)c4ccccc4C3=O)C(=O)N21 11.2 µM [activator, partial curve]
O=C(O)c1ccccc1C(=O)c1cccc2c(Br)cccc12 31.6 µM [activator, single point]
CCOC(=O)n1ccc(C(=O)Nc2ccccc2F)n1 11.2 µM [activator, partial curve]
COc1ccc(/C=C/C(=O)NCCOc2ccccc2OC)cc1 15.8 µM [activator, single point]

Growth rescue (activation), inconclusive:
Clc1cccc(Cc2c(-c3ccco3)nc3ccc(Br)cn23)c1 -88.1% [activator]
